From PubChem BioAssay AID2147 (National Center for Advancing Translational Sciences (NCATS), 2009)
The whole screen tested about 230,000 compounds, of which about 3,600 (1.6%) were called active. The shares of active, inactive and inconclusive entries below differ from those in the screen. Calls follow the shape of the dose curve; as a rule, active = well fitted inhibition curve with a large enough effect (not every such curve was filed as active); inconclusive = small, poorly fitted or top-dose-only effect, or another doubt; inactive = no such curve, though single readings can be large or run the other way. Where the call is inconclusive, the potency comes from a doubtful curve fit.

These compounds were tested against Lysine-specific demethylase 4E (Homo sapiens) (UniProt B2RXH2) (assay: qHTS Assay for Inhibitors of Human Jumonji Domain Containing 2E (JMJD2E)). Conditions: JMJD2E catalytic domain, FDH-coupled NADH fluorescence (FDH is formaldehyde dehydrogenase); series mostly up to 57.1 µM; activity change, negative = inhibition: at the top concentration.
Also: nearly all actives have a fitted effect of over 50% in size.
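For activity change, negative = inhibition in this document: 0% = wells with enzyme and -100% = buffer wells without enzyme.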
Potency is read from the fitted curve at half-maximal effect; tags tell the direction and shape of the fitted curve.

UniProt B2RXH2, sequence (B2RXH2 whole entry, looked up, the tested form may be a part): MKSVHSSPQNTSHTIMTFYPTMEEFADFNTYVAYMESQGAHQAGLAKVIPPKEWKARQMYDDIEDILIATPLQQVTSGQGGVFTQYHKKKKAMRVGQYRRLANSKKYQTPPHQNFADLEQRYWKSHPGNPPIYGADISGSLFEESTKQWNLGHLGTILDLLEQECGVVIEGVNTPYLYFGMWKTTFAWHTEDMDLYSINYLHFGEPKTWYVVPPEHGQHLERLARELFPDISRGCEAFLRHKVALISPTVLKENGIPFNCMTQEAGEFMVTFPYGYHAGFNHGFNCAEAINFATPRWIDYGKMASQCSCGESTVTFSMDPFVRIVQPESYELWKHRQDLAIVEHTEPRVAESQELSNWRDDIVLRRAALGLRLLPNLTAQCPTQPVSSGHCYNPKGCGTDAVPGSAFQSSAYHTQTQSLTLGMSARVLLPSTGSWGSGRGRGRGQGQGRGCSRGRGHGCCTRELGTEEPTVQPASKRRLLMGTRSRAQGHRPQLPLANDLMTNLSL

SMILES | activity change, negative = inhibition | Potency
CC(=O)CSc1nc2ccccc2s1 | inactive: 1.09% | –
O=[N+]([O-])c1ccc(N2CCN(S(=O)(=O)c3ccccc3)CC2)cc1NCC1CCCO1 (centres undefined) | inactive: 5.83% | –
O=[N+]([O-])c1cccc(-c2nc(N3CCOCC3)c3ccccc3n2)c1 | inactive: 4.54% | –
O=c1oc(-c2cccs2)nc2c1cnn2-c1ccccc1 | – | inconclusive: 35.5 µM [inhibitor, single point]
CC(C)CN1C(=O)C(=Nc2cccnc2)c2ccccc21 | – | inconclusive: 39.8 µM [inhibitor, single point]
O=C(O)C/C(=C\c1ccc(N2CCOCC2)c([N+](=O)[O-])c1)c1nc2ccccc2s1 | inactive: -8.47% | –
CC1CCCCN1S(=O)(=O)c1ccc(C(=O)Nc2ccccc2-c2nc3ccccc3[nH]2)cc1 (centres undefined) | inactive: -6.16% | –
CCCCCNC(=O)CCCCn1c(=O)[nH]c2cc(OCC)c(OCC)cc2c1=O | – | inconclusive: 5.01 µM [inhibitor, single point]
COCc1c(Br)c(C)[nH]c(=O)c1C#N | – | inconclusive: 28.2 µM [inhibitor, partial curve]
Cc1[nH]c(=O)c(C#N)c(C)c1Cl | – | inconclusive: 31.6 µM [inhibitor, single point]
C/C(N)=C(/C#N)C(=O)COC(=O)c1cc(-c2ccc(Br)cc2)nc2ccccc12 | inactive: -1.48% | –
CCOC(=O)c1ccc(NC(=S)NCC(O)c2ccccc2)cc1 (centres undefined) | – | inconclusive: 25.1 µM [inhibitor, single point]
COc1cc2[nH]c(=O)n(CCC(=O)NC3CCCC3)c(=O)c2cc1OC | – | inconclusive: 25.1 µM [inhibitor, partial curve]
Cc1ccc(S(=O)(=O)NC(=O)Nc2cccc(C)n2)cc1 | – | inconclusive: 39.8 µM [inhibitor, single point]
COc1cccc(/C=C/C(=O)c2cccc([N+](=O)[O-])c2)c1 | inactive: -7.89% | –
Clc1ccc(SCCn2ccnc2)cc1 | – | inconclusive: 39.8 µM [inhibitor, single point]
COc1ccc(CC(=O)N2CCC(c3ccccc3)C2)cc1 (centres undefined) | inactive: 5.79% | –
CCOC(=O)c1c(NC(=O)CSc2n[nH]c(-c3ccco3)n2)sc(C)c1C | inactive: 1.12% | –
CCCCn1cc2c(c1-c1cccc(C)c1)c(=O)n(C)c(=O)n2C | – | inconclusive: 31.6 µM [inhibitor, single point]
O=C(NC1(C(F)(F)F)N=C(c2ccccc2)NC1=O)c1ccc(Cl)cc1Cl (centres undefined) | – | inconclusive: 28.2 µM [inhibitor, single point]
Cc1ccc(-c2nc3cc(NC(=O)C(C)C)ccc3o2)cc1 | inactive: -1.5% | –
S=c1[nH]nc(COc2ccc(Cl)cc2)n1C1CCCCC1 | – | inconclusive: 35.5 µM [inhibitor, single point]
CCOC(=O)C1CCN(Cc2cn[nH]c2-c2ccc(C)cc2)CC1 | – | inconclusive: 25.1 µM [inhibitor, single point]

SMILES | activity change, negative = inhibition | Potency
O=C(/C=C/c1ccccc1Cl)NCc1cccs1 | inactive: -4.47% | –
Cc1ccc2[nH]c3c(c2c1)CCNC3=O | – | inconclusive: 15.8 µM [inhibitor, partial curve]
CC1CCCCN1C(=O)Cn1nnc(-c2cccnc2)n1 (centres undefined) | – | inconclusive: 39.8 µM [inhibitor, single point]
CC(=O)C1=C(O)C(=O)N(CCCN2CCOCC2)C1c1ccccc1[N+](=O)[O-] (centres undefined) | – | inconclusive: 28.2 µM [inhibitor, partial curve]
Cc1ccc(NC(=O)N(Cc2cccs2)Cc2cc3cc4c(cc3[nH]c2=O)OCO4)cc1 | – | inconclusive: 31.6 µM [inhibitor, partial curve]
Nc1ccccc1NC(=O)c1ccccc1N | – | inconclusive: 35.5 µM [inhibitor, partial curve]
Cc1cc(=O)oc2cc(OCC(=O)N3CC(C)OC(C)C3)ccc12 (centres undefined) | – | inconclusive: 31.6 µM [inhibitor, partial curve]
O=C(O)CCNC(=O)C12CC3CC(CC(C3)C1)C2 | – | inconclusive: 39.8 µM [inhibitor, single point]
Cc1c2c(nc3ccccc13)-c1cccc(=O)n1C2 | – | inconclusive: 3.16 µM [inhibitor, full curve]
Cc1[nH]n(-c2ccccc2)c(=O)c1N=Nc1nccs1 | – | inconclusive: 39.8 µM [inhibitor, single point]
Cc1cc(N2CCCCC2C)nc(-c2ccccc2O)n1 (centres undefined) | – | inconclusive: 28.2 µM [inhibitor, partial curve]
COc1cc(OC)c(OC)cc1/C=N/NC(=O)CC1C(=O)NN=C1C (centres undefined) | – | inconclusive: 28.2 µM [inhibitor, partial curve]
Cc1ccc(C(=O)CC(=O)c2cc(Cl)ccc2O)cc1 | – | inconclusive: 31.6 µM [inhibitor, single point]
Cc1ccc(NC(=O)c2cc(N3C(=O)C4CC=CCC4C3=O)ccc2N2CCOCC2)cc1Cl (centres undefined) | inactive: 65.3% | –
Cc1cc(N2CCN(C)CC2)nc2ccc(NC(=S)N3CCC4(CC3)OCCO4)cc12 | – | inconclusive: 8.91 µM [inhibitor, partial curve]
Cc1ccc2nc(N3CCN(c4ccccc4F)CC3)c(C=O)c(=O)n2c1 | – | inconclusive: 39.8 µM [inhibitor, single point]
CCCCOc1ccccc1NC(=O)CC1Nc2ccccc2NC1=O (centres undefined) | – | inconclusive: 39.8 µM [inhibitor, single point]
COc1cc(CNC2CCCC2)cc(Cl)c1OCc1ccccc1F | – | inconclusive: 39.8 µM [inhibitor, single point]
COc1nc(-c2ccc(C)cc2)ccc1-c1noc(-c2cccnc2)n1 | – | inconclusive: 6.31 µM [inhibitor, single point]
COc1ccc(-c2cc(C(=O)NCCCn3ccnc3)no2)cc1 | – | inconclusive: 35.5 µM [inhibitor, single point]
CCOC(=O)N1CCN(C(=O)Cn2ccc3ccccc3c2=O)CC1 | – | inconclusive: 39.8 µM [inhibitor, single point]
O=C(NCc1ccccc1)c1ccc2c(c1)C(=O)N(Cc1ccncc1)C2=O | inactive: 8.58% | –
COc1ccc(/C=N/c2oc(-c3ccccc3)cc2C#N)cc1 | – | inconclusive: 31.6 µM [inhibitor, partial curve]

SMILES | activity change, negative = inhibition | Potency
O=C(c1ccco1)N1CCN(C(=O)c2cc(-c3ccccc3)nc3ccccc23)CC1 | inactive: -5.77% | –
CCCCCCCCN=C1NC(=O)CS1 | – | inconclusive: 39.8 µM [inhibitor, single point]
CCOC(=O)c1cc(-c2ccccc2)sc1NC(=O)C(C)OC(=O)c1cccnc1OCC (centres undefined) | – | inconclusive: 4.47 µM [inhibitor, single point]
COc1ccccc1/C=C(/CC(=O)NCc1ccc(F)cc1)c1nc2ccccc2s1 | – | inconclusive: 10 µM [inhibitor, partial curve]
NC(=O)c1c(NC(=O)c2ccccc2)sc2c1CCc1ccccc1-2 | – | inconclusive: 31.6 µM [inhibitor, single point]
O=C1SC(SCc2ccccc2)=N/C1=C\c1ccc(C(=O)O)cc1 | – | inconclusive: 31.6 µM [inhibitor, partial curve]
Cn1c(=O)c([N+](=O)[O-])c(N2CCN(Cc3ccc4c(c3)OCO4)CC2)c2ccccc21 | – | inconclusive: 6.31 µM [inhibitor, single point]
COc1ccccc1N1CCN(/N=C/C=C/c2ccccc2[N+](=O)[O-])CC1 | inactive: -5% | –
COc1cc(NC(=O)c2cccs2)c(C(=O)OCC(=O)c2cc(C)n(-c3ccc(F)cc3)c2C)cc1OC | – | inconclusive: 3.98 µM [inhibitor, full curve]
COc1ccc(-n2c3c(cc(C#N)c2=O)C(=O)CCC3)cc1 | – | inconclusive: 31.6 µM [inhibitor, partial curve]
Cc1ccnc(NS(=O)(=O)c2ccc(Oc3ccccc3)cc2)c1 | – | inconclusive: 35.5 µM [inhibitor, single point]
CC1CCc2c(sc(NC(=O)c3ccc(Cn4cc(Br)cn4)o3)c2C(N)=O)C1 (centres undefined) | – | inconclusive: 4.47 µM [inhibitor, full curve]
O=C(NCc1ccccn1)C(=O)NCc1ccccn1 | inactive: 13.3% | –
O=C(Nc1ccc(NC(=O)C2CC2)nc1)c1ccccn1 | inactive: 2.07% | –
CCc1cc2c(NC(Cc3c[nH]c4ccccc34)C(=O)O)nc(C)nc2s1 (centres undefined) | – | inconclusive: 25.1 µM [inhibitor, partial curve]
CCc1nc(SCC(=O)c2ccc(C)c(C)c2)n[nH]1 | – | inconclusive: 39.8 µM [inhibitor, single point]
O=C(c1cccc(S(=O)(=O)N2CCCC2)c1)N1CCN(c2ncccn2)CC1 | – | inconclusive: 39.8 µM [inhibitor, single point]
COc1ccc(C2CC(c3ccccc3)=NN2C(=O)COC(=O)c2cccc(S(=O)(=O)N(C)C)c2)cc1 (centres undefined) | – | inconclusive: 20 µM [inhibitor, partial curve]
Cc1ccc(-c2nc3ccccc3n3nnnc23)cc1 | – | inconclusive: 35.5 µM [inhibitor, single point]
Cc1ccc(C(=O)NNC(=S)NC(=O)c2ccco2)cc1 | – | inconclusive: 39.8 µM [inhibitor, single point]
O=c1[nH]c2cc3c(cc2cc1CN(Cc1cccnc1)Cc1nnnn1Cc1ccco1)OCCO3 | – | inconclusive: 25.1 µM [inhibitor, partial curve]
COC(=O)c1sccc1-c1ccc(C(N)=O)o1 | – | inconclusive: 31.6 µM [inhibitor, partial curve]
COc1cc(OC)cc(-c2cc3nc(C4CCN(C(=O)OC(C)(C)C)CC4)cc(=O)n3[nH]2)c1 | – | inconclusive: 35.5 µM [inhibitor, partial curve]
